In PubChem BioAssay AID1346428 (National Center for Advancing Translational Sciences (NCATS), 2018):
Hit rate of the full screen: of about 48,000 compounds, about 1,200 (2.5%) were called active. Another 2% or so got no clear call; they are omitted.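 Rule for the calls: active = activation of at least 60% and not above a set upper limit (about 1 call in 100 departs from these limits); inconclusive = activation of 40% to 60%, or above that upper limit; inactive = activation under 40%.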 The list shows a part of the results.

The compounds below were run against Probable G-protein coupled receptor 32 (Homo sapiens) (UniProt O75388) (assay: qHTS for Agonists of Human Resolvin D1 Receptor DRV1). Settings: CHO-K1 GPR32 beta-arrestin PathHunter luminescence, 90 min; at 76.9 µM; active compounds read high; zero percent set by DMSO-only wells.
Method in brief: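 Agonism was scored by beta-Gal fragment complementation (chemiluminescent read, 1 h detection at ambient temperature) reporting beta-arrestin binding to GPR32 in engineered CHO-K1 cells. Compound treatment lasted 90 min at 37 C, normalized to a DMSO basal control.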
Note: 0% is about no effect.

Chain of UniProt O75388 (O75388 whole entry, looked up, the tested form may be a part): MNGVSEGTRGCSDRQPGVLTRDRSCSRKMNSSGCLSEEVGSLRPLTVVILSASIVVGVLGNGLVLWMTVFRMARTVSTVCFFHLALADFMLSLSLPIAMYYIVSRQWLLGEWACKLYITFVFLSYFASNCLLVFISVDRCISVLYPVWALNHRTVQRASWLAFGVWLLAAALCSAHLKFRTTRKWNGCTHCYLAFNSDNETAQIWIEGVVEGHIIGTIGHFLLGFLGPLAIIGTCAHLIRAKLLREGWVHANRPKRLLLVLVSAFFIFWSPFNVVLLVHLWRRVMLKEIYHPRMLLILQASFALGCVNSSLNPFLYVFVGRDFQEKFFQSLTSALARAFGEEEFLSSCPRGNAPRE

SMILES	activation
COCCNc1sc(S(=O)(=O)c2ccc(C)cc2)nc1S(=O)(=O)c1ccc(C)cc1	inactive: -22%
COC(=O)c1ccccc1NC(=O)c1c(NC(=O)c2ccco2)sc2c1CCC(C(C)(C)C)C2 (stereo not given)	inactive: 3.08%
CCc1ccccc1NC(=O)c1cc(S(=O)(=O)N2CCCC2)cn1C	inactive: -8.51%
Cc1cccc(N2CCN(C(=O)CCc3c(C)nc4ncnn4c3C)CC2)c1C	inactive: -4.87%
COCCN1C(=O)c2[nH]nc(-c3cc(C)ccc3O)c2C1c1ccc(C(C)C)cc1 (stereo not given)	inactive: 25.2%
COC(=O)c1cnc(N2CCN(c3ccccc3F)CC2)c2ccccc12	inactive: 13.5%
Cc1ccc(NC(=O)C2CCN(c3nc4ccccc4[nH]3)CC2)c(C)c1	inactive: -14.5%
Cc1ccc(Cn2c(=O)n(CCCC(=O)NCc3ccccc3Cl)c(=O)c3ccccc32)cc1	inactive: -2.35%
COc1ccc(OC)c(NC(=O)c2c(NCc3cccs3)sc3c2CCCC3)c1	inactive: -2.23%
O=C(Cc1ccccc1)Nc1cccc(-c2cn3cccnc3n2)c1	inactive: 16.7%
COc1ccccc1NC(=O)NCCN1CCN(c2cccc(Cl)c2)CC1	inactive: 12.2%
CC(C)c1cccc(C(C)C)c1NC1=NS(=O)(=O)c2ccccc21	inactive: -10.6%
CCOc1ccc(S(=O)(=O)Nc2ccc3c(c2)N(C(C)=O)CCC3)cc1	inactive: -7.18%
COC(=O)C(C)Sc1ncnc2c1c(-c1ccccc1)cn2-c1ccc(F)cc1 (stereo not given)	inactive: -0.458%
Cc1cccc(C)c1-n1ncc(C(=O)N2CCN(c3ccccc3)CC2)c1C1CCN(C(=O)OC(C)(C)C)CC1	inactive: -13.5%
O=C(Cn1c(-c2cccs2)cc2ccccc21)NCCc1ccc(Cl)cc1	inactive: -13.9%
CN(CC(=O)Nc1cccc(C(F)(F)F)c1)S(=O)(=O)c1cccs1	active: 67.5%
Cc1ccc(CNS(=O)(=O)c2cc3c(cc2C)NC(=O)CO3)cc1	inactive: -19.4%
COc1ccc(OC)c(NC(=O)CN2C(=O)COc3ccc(S(=O)(=O)NC4CCCC4)cc32)c1	inactive: -19.8%
Cc1cncn1CCc1nc2c3ccccc3nc(SCC(=O)Nc3cccc(Cl)c3)n2n1	inactive: 19.9%
O=C(c1ccc(CSc2nc3ccncc3n2Cc2cccc(F)c2)cc1)N1CCCCCC1	inactive: -2.8%
CCOc1ccccc1NC(=O)c1cc2c(=O)oc3ccccc3c2s1	inactive: 2.46%
CCC(Cn1nnc2ccccc2c1=O)NC(=O)Nc1ccc(C)c(C)c1 (stereo not given)	inactive: -17%
CC1CCCCN1c1nnc(NC(=O)Nc2ccccc2F)s1 (stereo not given)	inactive: 5.37%
Cc1ccc(/C=C/c2nc3ccccc3[nH]2)cc1	inactive: 30.8%
CCc1ccc(NC(=O)CCS(=O)(=O)c2ccc3c(c2)n(C)c(=O)c(=O)n3C)cc1	inactive: -5.26%
CC(C)COc1ccc(C(=O)N(Cc2ccc(N(C)C)cc2)Cc2ccco2)cc1	inactive: -32.4%
CS(=O)(=O)CCC(C(=O)Nc1cccc(C(F)(F)F)c1)N1Cc2ccccc2C1=O (stereo not given)	inactive: -11.7%

SMILES	activation
O=C(c1ccco1)c1cn(CCOc2ccc(F)cc2)c2ccccc12	inactive: -2.25%
CC1CCCN(C(=O)c2cc3c(Cl)nc4ccccc4c3s2)C1 (stereo not given)	active: 108%
Cc1ccc(OCc2nc3ccccc3n2CCOc2ccc(Cl)cc2)cc1	inactive: -53.8%
COCCCNC(=O)CSc1nc2cc(OC)c(OC)cc2c2nc(-c3ccccc3)nn12	inactive: 4.27%
Cc1ccc(Nc2nnc(-c3ccc(C)c(S(=O)(=O)NCc4nc5ccccc5[nH]4)c3)c3ccccc23)cc1	inactive: -6.23%
CC(C)c1ccc(NC(=O)Cn2c(=O)n(CCc3ccccc3)c(=O)c3ccccc32)cc1	inactive: 2.51%
CCc1cccc(CC)c1NC(=O)CN1C(=O)C(=O)c2ccccc21	inactive: -73.5%
Cc1ccc(-c2nc(SCC(=O)NCc3ccco3)c3c(=O)n(C)c(=O)n(C)c3n2)cc1	inactive: -2.98%
Cc1ccc(-c2nnc(Nc3cccc(O)c3)c3ccccc23)cc1S(=O)(=O)N1CCN(C)CC1	inactive: -1.28%
Cc1ccccc1OCC(O)Cn1c(=N)n(CCN2CCCCC2)c2ccccc21 (stereo not given)	inactive: 19.7%
Cc1ccc(C(=O)Nc2cccc(-c3nc4ccccc4o3)c2)c(Cl)c1	inactive: -2.86%
Cc1c(Cn2ccnc2)c2ccccc2n1CCC(=O)O	inactive: -7.38%
CCCc1c(C)c2ccc(O)c(CN3CCN(c4ccc(F)cc4)CC3)c2oc1=O	inactive: -1.49%
COC(=O)c1c(Oc2ccc(C(C)=O)cc2)nnc(-c2ccccc2)c1-c1ccccc1	inactive: -7.11%
COc1ccccc1CNC(=O)CN1C(=O)CSc2ccc(S(=O)(=O)N3CCCCC3)cc21	inactive: -5.61%
CCN(c1ccccc1)c1ncnc2c1cnn2-c1ccc(C)cc1C	inactive: 40.8%
CCOC(=O)c1ccccc1NC(=O)c1cc2c(=O)oc3ccc(C)cc3c2s1	inactive: 9.76%
CC1=C(C(=O)N2CCN(c3cccc(C(F)(F)F)c3)CC2)C2(CCCCC2)OC1=O	inactive: -6.2%
Cc1ccc(NC(=O)Cn2cc3c(n2)CCCCC3)cc1	inactive: -1.21%
O=C(Nc1ccc(Cl)cc1Cl)c1cc(S(=O)(=O)N2CCc3ccccc32)ccc1F	inactive: -16.7%
Cc1ccc(S(=O)(=O)Nc2cccc(-c3cn4cccc(C)c4n3)c2)cc1	inactive: -10.3%
CCOC(=O)c1noc2nc(C)n(CC(=O)Nc3ccccc3F)c(=O)c12	inactive: 9.88%
Cc1cccc(N2CCN(C(=O)c3c(C)oc4ncnc(N5CCCCC5)c34)CC2)c1C	active: 85.1%
Cc1ccc(C)c(Nc2nc3c(S(=O)(=O)c4ccc(C(C)C)cc4)nnn3c3ccsc23)c1	inactive: -12.1%
CCc1ccc(C2CC(=O)Nc3cc4c(cc32)OCO4)cc1 (stereo not given)	active: 72.3%
COc1ccc(S(=O)(=O)n2ccnc2)cc1C(C)(C)C	inactive: -4.12%
CCc1ccccc1N1C(=O)N(Cc2ccccc2C)c2ccccc2S1(=O)=O	inactive: -22.4%
